Source: PubChem BioAssay AID1671193 (National Center for Advancing Translational Sciences (NCATS), 2021)
Screen size: about 150,000 compounds; about 180 (0.12%) were called active. Inconclusive results, whose numbers are uncertain, are shown with a selection of clear calls. Calls follow the shape of the dose curve; as a rule, active = well fitted cell-killing curve with a large enough effect; inconclusive = small, poorly fitted or top-dose-only effect, or effect the other way; inactive = flat fitted curve, though single readings scatter. A potency beside an inconclusive call is a rough fit, not a confirmed value.

Test: GF-AFC viability counterscreen for inhibitors of alpha-synuclein gene (SNCA) expression; also: nearly all actives have a fitted effect of over 30% in size;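 as to activity change, negative = cytotoxicity: 0% = DMSO-treated cells and -100% = medium-only wells without cells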
Conditions: HEK-293-SNCA-luc viability, GF-AFC fluorescence, 24 h; activity change, negative = cytotoxicity: at 57.1 µM (top of the series) unless noted
Outline: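 Cytotoxicity counterscreen: after 24 h compound treatment of genome-edited SNCA-luciferase HEK-293 cells, live-cell protease substrate GF-AFC read by fluorescence after 30 min; activity scaled between DMSO (0%) and medium-only (-100%), curves Hill-fitted.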
Potency is read from the fitted curve at half-maximal effect; tags tell the direction and shape of the fitted curve.

| SMILES | Potency | activity change, negative = cytotoxicity |
| --- | --- | --- |
| Cc1ccc(CNC(=O)Cn2c(N3CCc4ccccc4C3)nc(C)cc2=O)cc1 | inconclusive: 22.4 µM [cytotoxic, single point] | – |
| CC1CCN(C(=O)Cn2cc(SCC(=O)NCc3ccccc3)c3ccccc32)CC1 | inconclusive: 3.55 µM [cytotoxic, full curve] | – |
| COCCOC(=O)C1=C(C)NC(C)=C(C(=O)OC/C=C/c2ccccc2)C1c1cccc([N+](=O)[O-])c1 (stereo unspecified) | inconclusive: 39.8 µM [cytotoxic, single point] | – |
| Cc1cccc(NC(=O)Cn2c(=O)n(-c3ccccc3)c(=O)c3c2cc(C)n3C)c1 | inconclusive: 2 µM [cytotoxic, full curve, poor fit] | – |
| CCc1ccccc1N(CC)C(=O)c1cc2c(s1)-c1ccccc1SC2 | – | inactive: 9.05% |
| COc1ccccc1/C=C/c1nc(C#N)c(NCc2ccccc2)o1 | inconclusive: 14.1 µM [rising, single point] | – |
| CC1=C(C(=O)OC(C)C)C(c2ccccc2C)N2C(CC(=O)NC3CC3)=CSC2=N1 (stereo unspecified) | – | inactive: -4.8% |
| Cc1cccc(-n2nc(-c3c(C)nc4scc(CC(=O)NC5CC5)n4c3=O)cc2C)c1 | inconclusive: 4.47 µM [cytotoxic, single point] | – |
| O=C(Cc1ccc2c(c1)OCO2)N1CCOCC2(CN(Cc3cc(F)cc(F)c3)C2)C1 | inconclusive: 31.6 µM [cytotoxic, partial curve, poor fit] | – |
| CCOC(=O)c1ccccc1NC(=O)CSc1ccc(-c2sc(C)nc2C)nn1 | inconclusive: 39.8 µM [cytotoxic, single point] | – |
| COc1cccc(OCCSc2nc3ccccc3n2CC(=O)N2CCOCC2)c1 | inconclusive: 1.78 µM [cytotoxic, full curve] | – |
| COc1ccc2c(CNC3CCC(C)CC3)c(C(=O)O)n(Cc3ccc(F)cc3)c2c1 (stereo unspecified) | inconclusive: 39.8 µM [cytotoxic, single point] | – |
| Cn1cccc1C(=O)N1CCC2(CC1)CN(c1ccncc1)C2 | inconclusive: 3.16 µM [cytotoxic, partial curve, poor fit] | – |
| O=C(c1cn(Cc2cncn2Cc2ccc(Br)cc2)cc1-c1cccc2ccccc12)N1CCOCC1 | inconclusive: 26.7 µM [cytotoxic, partial curve, poor fit] | – |
| CCOC(=O)c1ccc(N2C(=O)c3n[nH]c(-c4ccco4)c3C2c2ccccc2OC)cc1 (stereo unspecified) | inconclusive: 35.5 µM [cytotoxic, partial curve, poor fit] | – |
| COCCn1c(=O)c(-c2cccs2)nc2cnc(N3CCOCC3)nc21 | inconclusive: 11.2 µM [rising, partial curve] | – |
| COc1ccccc1-n1cc(-c2nc(C3CCOC3)no2)cn1 (stereo unspecified) | – | inactive: -9.57% |
| COc1ccc(OC)c(S(=O)(=O)N2CCCCCCNC(=O)[C@@H]3CCCC[C@@H]32)c1 | inconclusive: 12.6 µM [cytotoxic, partial curve, poor fit] | – |
| Cc1noc(-c2cn(C3CCN(C(=O)c4ccc(C)s4)CC3)nn2)n1 | – | inactive: -8.05% |
| CC(=O)O[C@@H](C[C@@H]1C=C(C)C(=O)O1)[C@H](C)[C@H]1CCC2[C@@]3(C)CC[C@H](O[C@@H]4O[C@H](CO)[C@@H](O)[C@H](O)[C@H]4O[C@@H]4O[C@@H](C)[C@H](O)[C@@H](O)[C@H]4O)C(C)(C)C3CC[C@@]2(C)[C@@]12COC(=O)C2 (stereo partly specified) | inconclusive: 5.66 µM [rising, partial curve, poor fit] | – |
| CC[C@H]1CN(C(=O)c2ccnc(Cl)c2)CC[C@H]1CC(=O)NCc1cccnc1 | – | inactive: 0.784% [at 87.6 µM] |

| SMILES | Potency | activity change, negative = cytotoxicity |
| --- | --- | --- |
| CCOC(=O)c1c(S(=O)(=O)N2CCCC(C(=O)Nc3cccc(CC)c3)C2)c(C)n(CC)c1C (stereo unspecified) | inconclusive: 14.1 µM [cytotoxic, partial curve, poor fit] | – |
| CCN(CC)CCCNC(=O)c1ccc2c(c1)sc1nc(-c3ccc(C)cc3)cn12 | inconclusive: 25.1 µM [cytotoxic, single point] | – |
| CCOc1c(Cl)cc(CNc2ccc3[nH]c(=O)[nH]c3c2)cc1OC | inconclusive: 44.7 µM [cytotoxic, single point] | – |
| CCOC(=O)N1CCC(N2CCN(Cc3ccccc3F)C(CCO)C2)CC1 (stereo unspecified) | inconclusive: 5.01 µM [cytotoxic, full curve, poor fit] | – |
| O=C(c1ccc2cc[nH]c2c1)N1CCCC(Cc2noc(-c3ccccc3)n2)C1 (stereo unspecified) | inconclusive: 35.5 µM [cytotoxic, single point] | – |
| C[S+](=O)([O-])c1ccc(-c2nc(C(=O)NCCc3ccc(Cl)cc3)n3ccccc23)cc1 | – | inactive: -0.542% |
| CCOc1ccc(C(=O)Nc2ccc3c(c2)CCC(=O)N3CC(C)C)cc1 | inconclusive: 39.8 µM [cytotoxic, single point] | – |
| OCC1CCN(Cc2cc3cc4c(cc3nc2-c2ccc(Cl)cc2)OCO4)CC1 | – | inactive: -9.64% |
| COc1ccccc1CCn1c(=O)c(-c2cn(C)c3ccccc23)nc2cncnc21 | inconclusive: 22.4 µM [rising, single point] | – |
| Cc1ccc(C2C=C(c3ccccc3)Nc3nc(NS(C)(=O)=O)nn32)cc1 (stereo unspecified) | inconclusive: 25.1 µM [rising, partial curve] | – |
| Cc1c(-c2ccccc2)c(=O)oc2c(CN3CCOCC3)c(O)ccc12 | inconclusive: 31.6 µM [rising, single point] | – |
| O=C(NCC1CCCO1)c1cc(-c2ccccc2F)cc2c1OCCN2Cc1cccnc1 (stereo unspecified) | – | inactive: -21.8% |
| COc1ccc(Nc2n[nH]c(C(O)c3cccc(C(F)(F)F)c3)n2)cn1 (stereo unspecified) | – | inactive: -5.9% [at 87.6 µM] |
| CC1(C(=O)NC2CCC2)CN(Cc2ccccc2)Cc2ccc(N3CCOCC3)nc21 (stereo unspecified) | inconclusive: 31.6 µM [cytotoxic, partial curve, poor fit] | – |
| CC1=C[C@@H](CNCc2ccccn2)[C@H](C(C)C)C[C@H]1Cc1nnc(-c2ccccc2F)o1 | inconclusive: 22.4 µM [cytotoxic, partial curve] | – |
| CCCCN1C(=O)c2[nH]nc(-c3ccccc3O)c2C1c1ccc(OCc2ccccc2)c(OC)c1 (stereo unspecified) | inconclusive: 39.8 µM [cytotoxic, single point] | – |
| COc1ccc2c(c1)c1c(c(=O)n(-c3cc(Cl)ccc3C)c(=O)n1CC(=O)N1CCCC1)n2C | inconclusive: 3.16 µM [cytotoxic, partial curve, poor fit] | – |
| Cc1cccc(NC(=O)[C@@H]2CN(S(C)(=O)=O)C[C@H]2c2ccncc2)c1 | inconclusive: 39.8 µM [cytotoxic, single point] | – |
| COc1ccc(C(=O)N2CCC3(CC2)OCC(C(=O)N2CCCC2)N3C(=O)c2ccc(F)cc2)cc1 (stereo unspecified) | inconclusive: 25.1 µM [cytotoxic, partial curve, poor fit] | – |
| CN1c2cc(C(=O)Nc3ccc(F)c(F)c3)ccc2C(=O)N2CCCCCC21 (stereo unspecified) | inconclusive: 7.08 µM [rising, single point] | – |
| COc1ccccc1-c1cc(N2CCN(c3ccccn3)CC2)c2onc(C)c2n1 | inconclusive: 31.6 µM [cytotoxic, single point] | – |

| SMILES | Potency | activity change, negative = cytotoxicity |
| --- | --- | --- |
| CC(C)NC(=O)N(C1CC1)C1CCOC2(CCN(C(=O)CCc3ccccc3)CC2)C1 (stereo unspecified) | – | inactive: 4.95% |
| CCOC(=O)CN1C(=O)N(c2ccc(C)c(C)c2)S(=O)(=O)c2ccccc21 | inconclusive: 28.2 µM [cytotoxic, partial curve, poor fit] | – |
| CCn1c2c(c(=O)n1Cc1ccccc1)CCN(C(=O)c1cccnc1)C2 | – | inactive: 2.97% [at 87.6 µM] |
| COc1ccc(Cn2c(=O)c(C(=O)NCCc3ccc(Cl)cc3)nc3cccnc32)cc1 | – | inactive: -23.6% |
| Cc1ccc(-n2ncc3c(NCCCN(C)C)ncnc32)cc1Cl | inconclusive: 39.8 µM [cytotoxic, single point] | – |
| CC(NC(=O)c1ccc2nccn2c1)c1ccc(F)cc1 (stereo unspecified) | – | inactive: 9.8% [at 87.6 µM] |
| CCOC(=O)c1[nH]c2c(c1Cc1ccccc1)C(=O)CC(c1ccc(C(C)(C)C)cc1)C2 (stereo unspecified) | – | inactive: 7.54% |
| CC1(C)[C@H](Cc2cc(CC3CCCCC3)on2)C[C@@H]1NC1CCOCC1 | inconclusive: 56.2 µM [cytotoxic, single point] | – |
| CCOC(=O)C1CCN(C(=O)Cn2nc(C)n3c(cc4c(OC)cccc43)c2=O)CC1 | – | inactive: 7.21% |
| OCC(Cc1ccccc1)Nc1nc(Oc2ccc3c(c2)CCC3)nc2c1ncn2Cc1ccc(-c2ccccc2)cc1 (stereo unspecified) | inconclusive: 21.2 µM [cytotoxic, single point] | – |
| COc1ccccc1CNC(=O)c1cc2c(N3CCSCC3)nc(C)cn2n1 | – | inactive: 6.03% |
| CCc1ccc(NC(=O)C2CCCN(S(=O)(=O)c3ccc4[nH]c(=O)ccc4c3)C2)cc1 (stereo unspecified) | inconclusive: 35.5 µM [cytotoxic, single point] | – |
| CC(=O)Nc1ccc(S(=O)(=O)NCCc2csc3nc(-c4ccc(Cl)cc4)nn23)cc1 | inconclusive: 10 µM [cytotoxic, partial curve] | – |
| O=C(NCc1cccs1)c1nc(-c2ccc(F)cc2)c2cnccn12 | – | inactive: 18.1% [at 87.6 µM] |
| CCn1nccc1C(=O)N1CCC(c2nc(C3CCOCC3)no2)CC1 | inconclusive: 6.31 µM [cytotoxic, single point] | – |
| Cc1cccc(C(=O)NCCc2nc3ccccc3n2CCC(C)C)c1 | inconclusive: 39.8 µM [cytotoxic, single point] | – |
| CN(C)c1ncc2nc(-c3cccs3)c(=O)n(C[C@H]3CCCO3)c2n1 | inconclusive: 12.6 µM [rising, partial curve] | – |
| CSc1ccc(C2c3c(-c4ccccc4O)n[nH]c3C(=O)N2Cc2ccncc2)cc1 (stereo unspecified) | inconclusive: 14.1 µM [cytotoxic, partial curve, poor fit] | – |
| Cc1cccc2c(=O)cc(CSc3ccccc3NC(=O)c3cccc(Cl)c3)[nH]c12 | inconclusive: 4.47 µM [cytotoxic, partial curve] | – |
